Experimental data: PubChem BioAssay AID894 (National Center for Advancing Translational Sciences (NCATS), 2007)
“And” between values parts separate entries of the source, which are not always exact repeats. Identical values can stand only once. In all, about 150,000 compounds went through this assay and about 6,500 (4.3%) were called active. This list was built around the results that the source calls inconclusive (neither active nor inactive); the mix of calls is not that of the screen. Calls come from the whole dose curve; as a rule, active = well fitted inhibition curve with a large enough effect (not every such curve was filed as active); inconclusive = small, poorly fitted or top-dose-only effect, or another doubt; inactive = no such curve, though single readings can be large or run the other way. A potency beside an inconclusive call is a rough fit, not a confirmed value.

Each molecule was assayed against 15-hydroxyprostaglandin dehydrogenase [NAD(+)] (Homo sapiens) (UniProt P15428) (assay: qHTS Assay for Inhibitors of HPGD (15-Hydroxyprostaglandin Dehydrogenase)). Details: purified HPGD, NADH fluorescence kinetic, PGE2 substrate; activity change, negative = inhibition: stronger effect = lower value.
Procedure, shortened: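 NADH formation kinetics: reaction with 30 uM PGE2 and 1 mM NAD+ (final), 20 nM enzyme, Tris-HCl pH 8 with Tween 20, after 15 min compound preincubation at room temperature. Fluorescence change, last versus first of five reads.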
% is set by controls: 0 for no effect and ±100 for the full control effect; potency is the fitted concentration of half-maximal effect; tags give direction and shape of the fitted curve.

UniProt P15428, sequence (P15428 whole entry, looked up): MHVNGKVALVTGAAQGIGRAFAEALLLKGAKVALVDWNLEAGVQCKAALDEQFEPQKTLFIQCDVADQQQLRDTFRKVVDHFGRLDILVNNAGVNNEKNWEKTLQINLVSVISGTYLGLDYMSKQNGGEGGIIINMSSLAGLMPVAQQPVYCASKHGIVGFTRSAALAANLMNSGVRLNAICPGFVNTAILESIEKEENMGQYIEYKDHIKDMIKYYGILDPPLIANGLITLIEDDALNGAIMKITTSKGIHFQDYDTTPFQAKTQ

Q: Which Potency does the source give for `C=CCNC(=O)c1cc(-c2ccccc2O)on1` here?
A: inconclusive: 0.794 µM [inhibitor, full curve, poor fit]

Q: Which Potency does the source give for `Nc1cccnc1Sc1ccc([N+](=O)[O-])cn1` here?
A: active: 10 µM

Q: `Cc1nnc(SC(C)C(=O)Nc2ccc3c(c2)OCCO3)s1` (stereo not given) was tested. Which activity change, negative = inhibition did it give?
A: inactive: -16.6%

Q: How did the activity change, negative = inhibition turn out when `CCOC(=O)c1sc(NC(=O)COC(=O)C(CCSC)NC(C)=O)nc1C` (stereo not given) was run?
A: inactive: -12.9%

Q: Which Potency does the source give for `CCn1c(SCC(=O)N2CCOCC2)nc2oc3c(Cl)cc(Cl)cc3c(=O)c2c1=O` here?
A: inconclusive: 28.2 µM [inhibitor, single point]

Q: Which Potency does the source give for `Cc1cc(C(=O)CSc2nnc(-c3cccc(F)c3)n2N)c(C)n1Cc1ccc2c(c1)OCO2` here?
A: inconclusive: 7.08 µM [inhibitor, single point]

Q: For `Cc1cccc(C)c1NC(=O)C1(N(Cc2ccco2)C(=O)CC2NC(=O)NC2=O)CCCC1` (stereo not given), which activity change, negative = inhibition is on record?
A: inactive: -4.28%

Q: Which activity change, negative = inhibition does the source give for `C[C@@]1(CCOCc2ccccc2)NC(=O)NC1=O` here?
A: inactive: -3.3%

Q: For `CC(=O)n1cc(Nc2ccccc2C(=O)O)c2ccccc21`, which Potency is on record?
A: inconclusive: 14.1 µM [inhibitor, partial curve, poor fit]

Q: For `CCCCOc1ccccc1NC(=O)Cn1c(-c2nonc2N)nc2ccccc21`, which activity change, negative = inhibition is on record?
A: inactive: -14.3%

Q: `CC(=O)Nc1nc2ccc(NC(=O)c3ccco3)cc2s1` was tested. Which Potency did it give?
A: inconclusive: 31.6 µM [inhibitor, single point]

Q: How did the Potency turn out when `Cc1cc2oc(=O)cc(CSc3nnc(C)n3N)c2cc1C(C)C` was run?
A: inconclusive: 25.1 µM [inhibitor, partial curve]

Q: How did the Potency turn out when `Cc1ccc(N=C2NC(=O)S/C2=C\c2ccco2)cc1` was run?
A: active: 22.4 µM

Q: Which activity change, negative = inhibition does the source give for `O=C(CC1(O)C(=O)Nc2cc(Cl)cc(Cl)c21)c1ccncc1` (stereo not given) here?
A: inactive: -12.3%

Q: Which activity change, negative = inhibition does the source give for `Cc1cccc(N(C(=O)c2nsc(Cl)c2Cl)C(C(=O)NC2CCCC2)c2ccc(O)cc2)c1` (stereo not given) here?
A: inactive: -3.69%

Q: Which Potency does the source give for `Cc1cc(NCCCCO)n2c(nc3ccccc32)c1C#N` here?
A: inconclusive: 31.6 µM [inhibitor, partial curve]

Q: For `CN(C(=O)CCc1nc2ccccc2s1)c1ccccc1`, which Potency is on record?
A: inconclusive: 17.8 µM [inhibitor, partial curve]

Q: How did the Potency turn out when `O=C(NNC(=S)Nc1ccc(Br)cc1)c1ccc(N2CCOCC2)c([N+](=O)[O-])c1` was run?
A: active: 35.5 µM

Q: `Cc1ccc(NC(=O)Cc2noc3ccccc23)nc1` was tested. Which activity change, negative = inhibition did it give?
A: inactive: 0.521%

Q: With `O=C1Nc2ccccc2C(O)(C(=O)NC2CC2)N1c1ccc(Cl)c(Cl)c1` (stereo not given) as the molecule, how does the activity change, negative = inhibition read?
A: inactive: -1.51%

Q: `CCOC(=O)CSc1ncnc2c1c(-c1ccccc1)cn2-c1ccc(OC)cc1` was tested. Which Potency did it give?
A: inconclusive: 28.2 µM [inhibitor, partial curve]

Q: With `Nc1nnc(-c2ccncc2)s1` as the molecule, how does the Potency read?
A: inconclusive: 31.6 µM [inhibitor, partial curve]

Q: `CCc1cc2c(Sc3nc4ccccc4s3)ncnc2s1` was tested. Which Potency did it give?
A: active: 25.1 µM

Q: Which activity change, negative = inhibition does the source give for `CS(=O)(=O)N1CCC[C@@]2(CCN(C(=O)Nc3cccc(F)c3)C2)C1` here?
A: inactive: 6.2%

Q: For `COc1cccc(/C=C/C(=O)NCCc2ccc(OC)c(OC)c2)c1`, which Potency is on record?
A: inconclusive: 31.6 µM [inhibitor, partial curve]

Q: Which Potency does the source give for `CC(CCc1ccccc1)NCC(O)c1ccc(O)c(C(N)=O)c1` (stereo not given) here?
A: inconclusive: 31.6 µM [inhibitor, partial curve] and inconclusive: 39.8 µM [inhibitor, partial curve, poor fit] and inconclusive: 28.2 µM [inhibitor, partial curve]

Q: With `COc1ccc(CCNc2cc(-c3ccccc3)nc3ncnn23)cc1` as the molecule, how does the Potency read?
A: inconclusive: 31.6 µM [inhibitor, single point]

Q: With `CS(=O)(=O)Nc1ccc(C(=O)Nc2ccccc2Sc2ccccc2)cc1` as the molecule, how does the Potency read?
A: inconclusive: 12.6 µM [inhibitor, partial curve]

Q: Which Potency does the source give for `COc1ccc(-n2nc(C(=O)NCC(=O)N3CCN(c4ccccn4)CC3)c3ccccc3c2=O)cc1` here?
A: inconclusive: 35.5 µM [inhibitor, partial curve]

Q: With `O=C(CCCCCn1c(=O)[nH]c2ccsc2c1=O)N1CCCCC1` as the molecule, how does the Potency read?
A: active: 14.1 µM

Q: `CCOc1ccc(-c2csc(/C(C#N)=C\c3ccc(O)c([N+](=O)[O-])c3)n2)cc1` was tested. Which Potency did it give?
A: active: 3.16 µM

Q: How did the Potency turn out when `COc1ccccc1/C=C/C(=O)NCC(=O)N/N=C/c1cccnc1` was run?
A: inconclusive: 20 µM [inhibitor, partial curve]

Q: Which Potency does the source give for `COc1cccc(-c2nc3sc4c(c3c(=O)[nH]2)CCCCC4)c1` here?
A: inconclusive: 31.6 µM [inhibitor, partial curve]

Q: For `CC(C)N=C(NC#N)SCc1ccccc1`, which activity change, negative = inhibition is on record?
A: inactive: -11.3%

Q: Which Potency does the source give for `CCc1cccc(CC)c1NC(=O)CSc1nc2ccc(N3C(=O)C4C5C=CC(C5)C4C3=O)cc2s1` (stereo not given) here?
A: active: 8.91 µM

Q: Which Potency does the source give for `Cc1onc(-c2c(F)cccc2Cl)c1C(=O)Nc1sc2c(c1C(N)=O)CCC2` here?
A: inconclusive: 35.5 µM [inhibitor, partial curve]

Q: Which Potency does the source give for `COc1ccccc1-c1nc(C#N)c(N2CCc3ccccc3C2)o1` here?
A: inconclusive: 28.2 µM [inhibitor, partial curve]

Q: `COc1ccc(OC)c(/C=C/C(=O)OCC(=O)Nc2cccc(Oc3ccccc3)c2)c1` was tested. Which Potency did it give?
A: inconclusive: 31.6 µM [inhibitor, partial curve]

Q: With `Cc1ccc(C(CC(=O)N2CCCC2)c2ccccc2)c(O)c1C` (stereo not given) as the molecule, how does the Potency read?
A: active: 7.94 µM

Q: For `CS(=O)(=O)N1CCC2(CC1)CN(c1ncccn1)C2`, which Potency is on record?
A: inconclusive: 28.2 µM [inhibitor, partial curve]

Q: Which Potency does the source give for `CCOC(=O)c1sc2nc3c(cc2c1N)COC(C)(CC)C3` (stereo not given) here?
A: inconclusive: 28.2 µM [inhibitor, single point]

Q: With `O=C(Nc1ccc2nc(-c3ccco3)c(-c3ccco3)nc2c1)NC1CC1` as the molecule, how does the Potency read?
A: inconclusive: 10 µM [inhibitor, partial curve]

Q: For `Cc1ccccc1NC(=O)CNc1ccccc1C(=O)NCc1ccco1`, which Potency is on record?
A: inconclusive: 17.8 µM [inhibitor, partial curve]

Q: How did the Potency turn out when `O=C1N=C(N2CCN(c3ccccc3)CC2)S/C1=C/c1cccs1` was run?
A: active: 15.8 µM

Q: With `COc1cccc(-c2nn(C)c3sc(C(=O)NCc4ccco4)cc23)c1` as the molecule, how does the Potency read?
A: inconclusive: 31.6 µM [inhibitor, single point]
